Consider nine variants from the supplement of paper PMC12217912.

To fix the notation:
B1: TEV protease; numbered along this chain (parent)
chain: MGESLFKGPRDYNPISSSICHLTNESDGHTTSLYGIGFGPFIITNKHLFRRNNGTLVVQSLHGVFKVKDTTTLQQHLVDGRDMIIIRMPKDFPPFPQKLKFREPQREERICLVTTNFQTKSMSSMVSDTSCTFPSGDGIFWKHWIQTKDGQCGSPLVSTRDGFIVGIHSASNFTNTNNYFTSVPKNFMELLTNQEAQQWVSGWRLNADSVLWGGHKVFMVKPEEPFQPVKEATQL

The list shows a part of the results. Sequences were assembled here from the parent chain. Inactive controls read about 0.05.

The variants in this assay derive from B1. In words: raw area under fraction-flipped curve 0-4 h after induction (AUC4h, not background-subtracted), DNA-recorder readout of cleavage of the substrate (dimensionless); higher = more cleavage of the substrate by the protease variant. The following applies: temperature: 34 °C; time window: 0-4 h after rhamnose induction. As to the method: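 In vivo DNA recorder in E. coli TOP10(DE3) ΔrhaA at 34 °C. Each TEVp single-site mutant (parent TEVp 0) is paired with a single-site variant of the 7-mer TEVs (canonical ENLYFQ|S). The substrate sits between flexible linkers in a Bxb1-sfGFP-TEVs-SsrA fusion, so cleavage stabilises Bxb1 and speeds flipping of a recombination array, read by NGS. The value is the raw area under the fraction-flipped curve over 0-4 h after rhamnose induction (AUC4h), with ≥20 reads per time point. It is not background-subtracted; inactive controls average about 0.047.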
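Also: Bxb1 expression induced with 0.2% (w/v) L-rhamnose at OD600 near 0.5, cultures sampled hourly, flipped fraction per protease–substrate barcode pair counted by paired-end Illumina sequencing.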

MGESLFKGPRDYNPISSSICHLTNESDGHWTSLYGIGFGPFIITNKHLFRRNNGTLVVQSLHGVFKVKDTTTLQQHLVDGRDMIIIRMPKDFPPFPQKLKFREPQREERICLVTTNFQTKSMSSMVSDTSCTFPSGDGIFWKHWIQTKDGQCGSPLVSTRDGFIVGIHSASNFTNTNNYFTSVPKNFMELLTNQEAQQWVSGWRLNADSVLWGGHKVFMVKPEEPFQPVKEATQL [T30W]: the “area with substrate ENLYFCS” value was 0.0481, the “area with substrate ENLYFES” value amounted to 0.0708, the “area with substrate ENLYFFS” value was 0.0703 and the “area with substrate ENLYFIS” value came to 0.0569. The “area with substrate ENLYFKS” value amounted to 0.073, the “area with substrate ENLYFLS” value was 0.064, the “area with substrate ENLYFMS” value came to 0.0554 and the “area with substrate ENLYFNS” value amounted to 0.0791. Besides, the “area with substrate ENLYFPS” value is 0.0581, the “area with substrate ENLYFRS” value is 0.0485, the “area with substrate ENLYFSS” value is 0.057 and the “area with substrate ENLYFTS” value worked out at 0.0543. For the same variant, the “area with substrate ENLYFVS” value amounted to 0.0677.

For the variant MGESLFKGPRDYNPISSSICHLTNESDGHTTSLYGIGFGPFIITNKHLKRRNNGTLVVQSLHGVFKVKDTTTLQQHLVDGRDMIIIRMPKDFPPFPQKLKFREPQREERICLVTTNFQTKSMSSMVSDTSCTFPSGDGIFWKHWIQTKDGQCGSPLVSTRDGFIVGIHSASNFTNTNNYFTSVPKNFMELLTNQEAQQWVSGWRLNADSVLWGGHKVFMVKPEEPFQPVKEATQL [F49K], the “area with substrate ENLYFCS” value is 0.0526, the “area with substrate ENLYFES” value came out at 0.0554, the “area with substrate ENLYFFS” value is 0.0569 and the “area with substrate ENLYFHS” value was found to be 0.0548. For the same variant, the “area with substrate ENLYFIS” value came to 0.0464, the “area with substrate ENLYFKS” value was 0.0538, the “area with substrate ENLYFLS” value is 0.0517 and the “area with substrate ENLYFMS” value is 0.0523. For the same variant, the “area with substrate ENLYFNS” value is 0.0623, the “area with substrate ENLYFPS” value was 0.0585, the “area with substrate ENLYFRS” value turned out to be 0.084 and the “area with substrate ENLYFSS” value came out at 0.0416. Besides, the “area with substrate ENLYFTS” value is 0.0511, the “area with substrate ENLYFVS” value came out at 0.0256, the “area with substrate ENLYFWS” value is 0.0506 and the “area with substrate ENLYFYS” value was found to be 0.0376.

MGESLFKGPRDYNPISSSICHLTNESDGHTTSLYGIGFGPFIIKNKHLFRRNNGTLVVQSLHGVFKVKDTTTLQQHLVDGRDMIIIRMPKDFPPFPQKLKFREPQREERICLVTTNFQTKSMSSMVSDTSCTFPSGDGIFWKHWIQTKDGQCGSPLVSTRDGFIVGIHSASNFTNTNNYFTSVPKNFMELLTNQEAQQWVSGWRLNADSVLWGGHKVFMVKPEEPFQPVKEATQL [T44K]: the “area with substrate ENLYFCS” value was found to be 0.0265, the “area with substrate ENLYFDS” value came to 0.0402, the “area with substrate ENLYFES” value stood at 0.048 and the “area with substrate ENLYFFS” value was 0.0456. Moreover, the “area with substrate ENLYFHS” value stood at 0.0403, the “area with substrate ENLYFIS” value turned out to be 0.0523, the “area with substrate ENLYFLS” value was determined as 0.0458 and the “area with substrate ENLYFMS” value was 0.0422. Further, the “area with substrate ENLYFNS” value was 0.0476, the “area with substrate ENLYFPS” value came to 0.041, the “area with substrate ENLYFRS” value stood at 0.0329 and the “area with substrate ENLYFSS” value was determined as 0.0424. The “area with substrate ENLYFTS” value was 0.0415, the “area with substrate ENLYFVS” value was 0.0459 and the “area with substrate ENLYFWS” value worked out at 0.0291.

Regarding MGESLFKGPRDYNPISSSICHLTNESDGHTPSLYGIGFGPFIITNKHLFRRNNGTLVVQSLHGVFKVKDTTTLQQHLVDGRDMIIIRMPKDFPPFPQKLKFREPQREERICLVTTNFQTKSMSSMVSDTSCTFPSGDGIFWKHWIQTKDGQCGSPLVSTRDGFIVGIHSASNFTNTNNYFTSVPKNFMELLTNQEAQQWVSGWRLNADSVLWGGHKVFMVKPEEPFQPVKEATQL [T31P], the “area with substrate ENLYFCS” value was determined as 0.0636, the “area with substrate ENLYFDS” value amounted to 0.0524, the “area with substrate ENLYFES” value stood at 0.0729 and the “area with substrate ENLYFFS” value was found to be 0.0615. The “area with substrate ENLYFGS” value is 0.0484, the “area with substrate ENLYFHS” value amounted to 0.0516, the “area with substrate ENLYFIS” value stood at 0.043 and the “area with substrate ENLYFKS” value was 0.0504. Further, the “area with substrate ENLYFLS” value worked out at 0.0587, the “area with substrate ENLYFMS” value came out at 0.0528, the “area with substrate ENLYFPS” value came out at 0.0546 and the “area with substrate ENLYFRS” value came out at 0.0701. The “area with substrate ENLYFSS” value amounted to 0.0632, the “area with substrate ENLYFTS” value was determined as 0.0589, the “area with substrate ENLYFWS” value turned out to be 0.0611 and the “area with substrate ENLYFYS” value was 0.0472.

As to MGESLFKGPRDYNPISSSICHLTNESKGHTTSLYGIGFGPFIITNKHLFRRNNGTLVVQSLHGVFKVKDTTTLQQHLVDGRDMIIIRMPKDFPPFPQKLKFREPQREERICLVTTNFQTKSMSSMVSDTSCTFPSGDGIFWKHWIQTKDGQCGSPLVSTRDGFIVGIHSASNFTNTNNYFTSVPKNFMELLTNQEAQQWVSGWRLNADSVLWGGHKVFMVKPEEPFQPVKEATQL [D27K], the “area with substrate ENLYFCS” value was found to be 0.0461, the “area with substrate ENLYFES” value came to 0.0479, the “area with substrate ENLYFHS” value was 0.0616 and the “area with substrate ENLYFIS” value came out at 0.0545. Also, the “area with substrate ENLYFMS” value was 0.065, the “area with substrate ENLYFNS” value stood at 0.0595, the “area with substrate ENLYFPS” value turned out to be 0.0597 and the “area with substrate ENLYFRS” value was determined as 0.0686. In addition, the “area with substrate ENLYFYS” value worked out at 0.0521.

In the case of MGESLFKGPRDYNPISSSICHLTNESDGHTTSLYGIGFGPFIITNKHLFDRNNGTLVVQSLHGVFKVKDTTTLQQHLVDGRDMIIIRMPKDFPPFPQKLKFREPQREERICLVTTNFQTKSMSSMVSDTSCTFPSGDGIFWKHWIQTKDGQCGSPLVSTRDGFIVGIHSASNFTNTNNYFTSVPKNFMELLTNQEAQQWVSGWRLNADSVLWGGHKVFMVKPEEPFQPVKEATQL [R50D], the “area with substrate ENLYFCS” value is 0.0668, the “area with substrate ENLYFES” value stood at 0.0746, the “area with substrate ENLYFIS” value was determined as 0.0645 and the “area with substrate ENLYFLS” value turned out to be 0.0714. The “area with substrate ENLYFMS” value was 0.0479, the “area with substrate ENLYFNS” value was found to be 0.0723, the “area with substrate ENLYFSS” value came to 0.0359 and the “area with substrate ENLYFWS” value amounted to 0.0458.

Turning to MGESLFKGPRDYNPISSSICHLTNESDGHTTSLYGIGFGPFIITHKHLFRRNNGTLVVQSLHGVFKVKDTTTLQQHLVDGRDMIIIRMPKDFPPFPQKLKFREPQREERICLVTTNFQTKSMSSMVSDTSCTFPSGDGIFWKHWIQTKDGQCGSPLVSTRDGFIVGIHSASNFTNTNNYFTSVPKNFMELLTNQEAQQWVSGWRLNADSVLWGGHKVFMVKPEEPFQPVKEATQL [N45H], the “area with substrate ENLYFCS” value was determined as 0.0509, the “area with substrate ENLYFDS” value is 0.0613, the “area with substrate ENLYFFS” value is 0.0682 and the “area with substrate ENLYFGS” value was 0.0718. In addition, the “area with substrate ENLYFIS” value amounted to 0.0567, the “area with substrate ENLYFKS” value was found to be 0.0835, the “area with substrate ENLYFLS” value amounted to 0.0556 and the “area with substrate ENLYFMS” value was found to be 0.0677. The “area with substrate ENLYFNS” value was determined as 0.0589, the “area with substrate ENLYFPS” value came out at 0.064, the “area with substrate ENLYFRS” value came out at 0.0584 and the “area with substrate ENLYFSS” value came out at 0.0725. Moreover, the “area with substrate ENLYFTS” value is 0.0487, the “area with substrate ENLYFWS” value was found to be 0.0596 and the “area with substrate ENLYFYS” value was found to be 0.0633.

In the case of MGESLFKGPRDYNPISSSICHLTNESDGHTTSLYGIGFGPWIITNKHLFRRNNGTLVVQSLHGVFKVKDTTTLQQHLVDGRDMIIIRMPKDFPPFPQKLKFREPQREERICLVTTNFQTKSMSSMVSDTSCTFPSGDGIFWKHWIQTKDGQCGSPLVSTRDGFIVGIHSASNFTNTNNYFTSVPKNFMELLTNQEAQQWVSGWRLNADSVLWGGHKVFMVKPEEPFQPVKEATQL [F41W], the “area with substrate ENLYFCS” value came out at 0.041, the “area with substrate ENLYFDS” value was determined as 0.0595, the “area with substrate ENLYFES” value was found to be 0.0486 and the “area with substrate ENLYFFS” value is 0.0621. The “area with substrate ENLYFHS” value was determined as 0.0628, the “area with substrate ENLYFIS” value was found to be 0.0586, the “area with substrate ENLYFKS” value amounted to 0.0681 and the “area with substrate ENLYFLS” value worked out at 0.0721. Besides, the “area with substrate ENLYFNS” value is 0.0598, the “area with substrate ENLYFPS” value turned out to be 0.0475, the “area with substrate ENLYFRS” value turned out to be 0.0561 and the “area with substrate ENLYFSS” value came out at 0.0539. In addition, the “area with substrate ENLYFTS” value was 0.0637, the “area with substrate ENLYFWS” value was 0.057 and the “area with substrate ENLYFYS” value amounted to 0.0192.

For MGESLFKGPRDYNPISQSICHLTNESDGHTTSLYGIGFGPFIITNKHLFRRNNGTLVVQSLHGVFKVKDTTTLQQHLVDGRDMIIIRMPKDFPPFPQKLKFREPQREERICLVTTNFQTKSMSSMVSDTSCTFPSGDGIFWKHWIQTKDGQCGSPLVSTRDGFIVGIHSASNFTNTNNYFTSVPKNFMELLTNQEAQQWVSGWRLNADSVLWGGHKVFMVKPEEPFQPVKEATQL [S17Q], the “area with substrate ENLYFCS” value was 0.0631, the “area with substrate ENLYFDS” value is 0.0457, the “area with substrate ENLYFES” value was 0.0608 and the “area with substrate ENLYFFS” value amounted to 0.0769. For the same variant, the “area with substrate ENLYFGS” value was found to be 0.0407, the “area with substrate ENLYFHS” value turned out to be 0.0632, the “area with substrate ENLYFIS” value was 0.0588 and the “area with substrate ENLYFKS” value worked out at 0.0552. Besides, the “area with substrate ENLYFLS” value was 0.0637, the “area with substrate ENLYFMS” value turned out to be 0.0723, the “area with substrate ENLYFNS” value turned out to be 0.0618 and the “area with substrate ENLYFPS” value is 0.062. The “area with substrate ENLYFSS” value came to 0.053, the “area with substrate ENLYFTS” value was found to be 0.0478, the “area with substrate ENLYFVS” value is 0.0554 and the “area with substrate ENLYFWS” value was determined as 0.04.
